In patent US20250019440A1 (Zymeworks, published 2025):

Key:
PD-L1 on cells = PD-L1 on cells (UniProt Q9NZQ7); assay: cell-based or functional assay
Human PD-L2 = biological target: T1, Human PD-L2 (human, UniProt Q9BQ51 20-219); assay: SPR, PD-L2 amine-coupled, variant as analyte
T1 construct: Amine-coupled to a CM5 chip for SPR; also called recombinant PD-L2
T1 sequence (looked up): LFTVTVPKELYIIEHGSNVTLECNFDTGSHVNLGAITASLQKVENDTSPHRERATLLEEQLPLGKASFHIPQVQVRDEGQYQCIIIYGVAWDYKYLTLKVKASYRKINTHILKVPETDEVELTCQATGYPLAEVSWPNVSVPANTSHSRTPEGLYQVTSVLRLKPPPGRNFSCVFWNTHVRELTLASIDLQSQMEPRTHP

Human CD3 (recombinant) [1] = biological target: Human CD3 (recombinant) (human); assay: SPR, CD3 amine-coupled, variant as analyte, 1:1 model
Human CD3 (recombinant), sequence (chain, as listed by the source): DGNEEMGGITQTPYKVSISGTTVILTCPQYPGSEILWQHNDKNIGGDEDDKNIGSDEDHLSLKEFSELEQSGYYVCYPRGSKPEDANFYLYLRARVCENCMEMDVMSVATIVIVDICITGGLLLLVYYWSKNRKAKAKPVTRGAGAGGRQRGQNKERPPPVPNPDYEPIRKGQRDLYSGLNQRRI

Human PD-L1 [2] = biological target: T2, Human PD-L1 (human, UniProt Q9NZQ7 partial chain); assay: SPR, PD-L1 amine-coupled, variant as analyte, 1:1 model
T2 construct: Amine-coupled to a CM5 chip for SPR; also called recombinant human PD-L1

Human PD-L1 [3] = biological target: T2, Human PD-L1; assay: as above; remark: listed apart in the source
T2 sequence (Q9NZQ7 19-239 limits assumed): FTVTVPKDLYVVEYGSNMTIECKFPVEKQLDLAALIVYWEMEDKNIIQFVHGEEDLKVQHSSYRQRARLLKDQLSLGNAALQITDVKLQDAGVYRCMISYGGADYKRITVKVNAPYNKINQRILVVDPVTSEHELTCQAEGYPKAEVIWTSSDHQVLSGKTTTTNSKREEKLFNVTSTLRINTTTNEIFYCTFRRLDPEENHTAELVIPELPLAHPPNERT

Human mesothelin = biological target: T3, Human mesothelin (human, UniProt Q13421 296-580, limits assumed); assay: SPR, mesothelin amine-coupled; apparent KD, variant binds mesothelin bivalently but was fit 1:1
Human mesothelin, sequence (Q13421 other isoform, or with tags, fused parts or gaps limits assumed): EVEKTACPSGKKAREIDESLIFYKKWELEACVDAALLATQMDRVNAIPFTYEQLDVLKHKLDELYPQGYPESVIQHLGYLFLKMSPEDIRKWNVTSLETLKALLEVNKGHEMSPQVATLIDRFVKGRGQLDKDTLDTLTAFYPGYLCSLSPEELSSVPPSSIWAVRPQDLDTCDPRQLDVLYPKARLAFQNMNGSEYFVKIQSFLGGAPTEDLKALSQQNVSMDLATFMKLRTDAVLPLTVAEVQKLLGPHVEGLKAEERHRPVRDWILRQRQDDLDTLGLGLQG
T3 construct: Amine-coupled to a CM5 chip for SPR; also called MSLN; recombinant human mesothelin

Human PD-L1 [4] = biological target: T2, Human PD-L1; assay: SPR, PD-L1 amine-coupled, variant as analyte
Mouse PD-L1 [5] = biological target: T4, Mouse PD-L1 (mouse, UniProt Q9EP73 partial chain, limits assumed); assay: SPR, PD-L1 amine-coupled, variant as analyte
T4 construct: Amine-coupled to a CM5 chip for SPR; also called recombinant mouse PD-L1

Cynomolgus monkey PD-L1 [6] = biological target: T5, Cynomolgus monkey PD-L1 (cynomolgus monkey, UniProt G7PSE7 19-239); assay: SPR, PD-L1 amine-coupled, variant as analyte
T5 construct: Amine-coupled to a CM5 chip for SPR; also called recombinant cynomolgus monkey PD-L1

Human CD3 (recombinant) [7] = biological target: Human CD3 (recombinant) (human); assay: SPR, CD3 amine-coupled, variant as analyte, 1:1 model; remark: listed apart in the source
Human PD-L1 [8] = biological target: T2, Human PD-L1; assay: SPR, PD-L1 amine-coupled, variant as analyte, 1:1 model; remark: listed apart in the source
Mouse PD-L1 [9] = biological target: T4, Mouse PD-L1; assay: as above
T4 sequence (Q9EP73 19-238 limits assumed): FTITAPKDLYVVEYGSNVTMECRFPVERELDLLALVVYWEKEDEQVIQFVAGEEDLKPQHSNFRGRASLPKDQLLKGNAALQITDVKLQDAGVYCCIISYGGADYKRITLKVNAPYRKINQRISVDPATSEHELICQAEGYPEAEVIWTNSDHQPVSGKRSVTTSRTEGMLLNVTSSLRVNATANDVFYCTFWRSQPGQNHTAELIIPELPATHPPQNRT

Cynomolgus monkey PD-L1 [10] = biological target: T5, Cynomolgus monkey PD-L1; assay: as above
T5 sequence (G7PSE7 entry or part of it): as the sequence (Q9NZQ7 19-239 limits assumed) above, with A33T, A34S, S62N, R68Q, Q82R, F173L, T185A, T192I, H215L counted along it

Human PD-L1 [11] = biological target: T2, Human PD-L1; assay: SPR, PD-L1 amine-coupled, variant as analyte, 1:1 model; third of three variants in the merged cell (G1 4-1 PD-1)

PD-L1 on cells, sequence (Q9NZQ7 19-290 limits assumed): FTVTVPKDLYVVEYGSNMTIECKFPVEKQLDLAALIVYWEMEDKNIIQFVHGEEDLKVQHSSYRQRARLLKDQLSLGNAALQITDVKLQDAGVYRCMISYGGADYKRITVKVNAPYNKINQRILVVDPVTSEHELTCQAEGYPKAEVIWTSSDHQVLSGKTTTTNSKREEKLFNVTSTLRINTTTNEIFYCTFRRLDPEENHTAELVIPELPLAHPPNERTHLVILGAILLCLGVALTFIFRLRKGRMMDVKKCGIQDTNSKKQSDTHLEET

B1: v38449 (other)
heavy 1: DIQMTQSPSSLSASVGDRVTITCSASSSVSYMHWYQQKSGKAPKLLIYDTSKLASGVPSRFSGSGSGTDFTLTISSLQPEDFATYYCQQWSGYPLTFGQGTKLEIKGGGGSGGGGSGGGGSGGGGSQVQLVQSGAEVKKPGASVKVSCKASGYSFTGYTMNWVRQAPGQGLEWMGLITPYNGASSYNQKFRGKATMTVDTSTSTVYMELSSLRSEDTAVYYCARGGYDGRGFDYWGQGTLVTVSSGGGGSGEVQLVESGGGLVQPGGSLRLSCAASGVTFNYYGMSWIRQAPGKGLEWVASITSSGGRIYYPDSVKGRFTISRENTQKTLYLQMNSLRAEDTAVYYCTLDGRDGWVAYWGQGTLVTVSSASTKGPSVFPLAPSSKSTSGGTAALGCLVKDYFPEPVTVSWNSGALTSGVHTFPAVLQSSGLYSLSSVVTVPSSSLGTQTYICNVNHKPSNTKVDKK[human IgG1 Fc with changes not shown]
light: NFMLTQPHSVSESPGKTVTISCKRNTGNIGSNYVNWYQQHEGSSPTTIIYRNDKRPDGVSDRFSGSIDRSSKSASLTISNLKTEDEADYFCQSYSSGFIFGGGTKLTVLGQPKAAPSVTLFPPSSEELQANKATLVCLISDFYPGAVTVAWKADSSPVKAGVETTTPSKQSNNKYAASSYLSLTPEQWKSHRSYSCQVTHEGSTVEKTVAPTECS
heavy 2: [about 120 residues not shown]GGGSGDIQMTQSPSSLSASVGDRVTITCSASSSVSYMHWYQQKSGKAPKLLIYDTSKLASGVPSRFSGSGSGTDFTLTISSLQPEDFATYYCQQWSGYPLTFGQGTKLEIKGGGGSGGGGSGGGGSGGGGSQVQLVQSGAEVKKPGASVKVSCKASGYSFTGYTMNWVRQAPGQGLEWMGLITPYNGASSYNQKFRGKATMTVDTSTSTVYMELSSLRSEDTAVYYCARGGYDGRGFDYWGQGTLVTVSSAAEPKSSDKTHTCPPCPAPEAAGGPSVFLFPPKPKDTLMISRTPEVTCVVVSVSHEDPEVKFNWYVDGVEVHNAKTKPREEQYNSTYRVVSVLTVLHQDWLNGKEYKCKVSNKALPAPIEKTISKAKGQPREPQVYVLPPSRDELTKNQVSLLCLVKGFYPSDIAVEWESNGQPENNYLTWPPVLDSDGSFFLYSKLTVDKSRWQQGNVFSCSVMHEALHNHYTQKSLSLSPG
EC50 (read off the curve); hybrid PD-1/PD-L1 reporter gene assay, delta RLU, PD-1+ Jurkat T cells with HCT-116 cells; composite signal of CD3 engagement and PD-1:PD-L1 blockade (PD-L1 on cells): ~0.1 nM | binding result (Human PD-L2): no binding (tested: 7.17-500 nM) | Kd (Human CD3 (recombinant) [1]): 41 nM | Kd (Human PD-L1 [2]): 2.8 nM | Kd (Human PD-L1 [3]): 17 nM | Kd (Human mesothelin): 0.25 nM

B2: v38423 (other)
heavy 1: NPPTFSPALLVVTEGDNATFTCSFSNTSESFVLNWYRMSPSNQTDALAAFPEDRSQPGQDARFRVTQLPNGRDFHMSVVRARRNDSGTYLCGAASLAPKAQIKESLRAELRVTEGGGGSGQVQLVESGGGLVQPGGSLRLSCSVSGIDLSSNPMIWVRQAPGKGLQYIGIIDTDGSTYYADWAKGRFTISKDSTTVYLQINSPRAEDTAVYYCARRLHGSSNGYYDDLWGQGTLVTVSSASTKGPSVFPLAPSSKSTSGGTAALGCLVKDYFPEPVTVSWNSGALTSGVHTFPAVLQSSGLYSLSSVVTVPSSSLGTQTYICNVNHKPSNTKVDKKVEPKSCDKTHTCPPCPAPEAAGGPSVFLFPPKPKDTLMISRTPEVTCVVVSVSHEDPEVKFNWYVDGVEVHNAKTKPREEQYNSTYRVVSVLTVLHQDWLNGKEYKCKVSNKALPAPIEKTISKAKGQPREPQVYVLPPSRDELTKNQVSLLCLVKGFYPSDIAVEWESNGQPENNYLTWPPVLDSDGSFFLYSKLTVDKSRWQQGNVFSCSVMHEALHNHYTQKSLSLSPG
light: DGQMTQSPSSVSASVGDRVTITCQASQSIYSYLSWYQQKPGQRPKLLIYKASTLASGVPSRFSGSGSGTDFTLTISSVQPEDFATYYCQQGYTVTNVDKNTFGGGTKVEIKRTVAAPSVFIFPPSDEQLKSGTASVVCLLNNFYPREAKVQWKVDNALQSGNSQESVTEQDSKDSTYSLSSTLTLSKADYEKHKVYACEVTHQGLSSPVTKSFNRGEC
heavy 2: EVQLVESGGGLVQPGGSLRLSCAASGVTFNYYGMSWIRQAPGKGLEWVASITSSGGRIYYPDSVKGRFTISRENTQKTLYLQMNSLRAEDTAVYYCTLDGRDGWVAYWGQGTLVTVSSGGGGSGGGGSGGGGSGGGGSNFMLTQPHSVSESPGKTVTISCKRNTGNIGSNYVNWYQQHEGSSPTTIIYRNDKRPDGVSDRFSGSIDRSSKSASLTISNLKTEDEADYFCQSYSSGFIFGGGTKLTVLA[human IgG1 Fc with changes not shown]
notes: Cldn18.2 Fab x CD3 scFv Fc, attenuated (KO) PD-1 attached to HC2 (N-term)
binding result (Human PD-L1 [4]): no binding | binding result (Mouse PD-L1 [5]): no binding | binding result (Cynomolgus monkey PD-L1 [6]): no binding | Kd (Human CD3 (recombinant) [7]): 22 nM

B3: v38733 (other)
heavy 1: NPPTFSPALLVVTEGDNATFTCSFSNTSESFRLVWHRESPGYETDTLASFPEDRSTPLPDARFRVTQLPNGRDFHMSVVRARRNDSGTYVCGAIAFHPVIQIKESLRAELRVTEGGGGSGQVQLVESGGGLVQPGGSLRLSCSVSGIDLSSNPMIWVRQAPGKGLQYIGIIDTDGSTYYADWAKGRFTISKDSTTVYLQINSPRAEDTAVYYCARRLHGSSNGYYDDLWGQGTLVTVSSASTKGPSVFPLAPSSKSTSGGTAALGCLVKDYFPEPVTVSWNSGALTSGVHTFPAVLQSSGLYSLSSVVTVPSSSLGTQTYICNVNHKPSNTKVDKKVEPKSCDKTHTCPPCPAPEAAGGPSVFLFPPKPKDTLMISRTPEVTCVVVSVSHEDPEVKFNWYVDGVEVHNAKTKPREEQYNSTYRVVSVLTVLHQDWLNGKEYKCKVSNKALPAPIEKTISKAKGQPREPQVYVLPPSRDELTKNQVSLLCLVKGFYPSDIAVEWESNGQPENNYLTWPPVLDSDGSFFLYSKLTVDKSRWQQGNVFSCSVMHEALHNHYTQKSLSLSPG
light: B2 light
heavy 2: EVQLVESGGGLVQPGGSLRLSCAASGVTFNYYGMSWIRQAPGKGLEWVASITSSGGRIYYPDSVKGRFTISRENTQKTLYLQMNSLRAEDTAVYYCTLDGRDGWVAYWGQGTLVTVSSGGGGSGGGGSGGGGSGGGGSNFMLTQPHSVSESPGKTVTISCKRNTGNIGSNYVNWYQQHEGSSPTTIIYRNDKRPDGVSDRFSGSIDRSSKSASLTISNLKTEDEADYFCQSYSSGFIFGGGTKLTVLA[human IgG1 Fc with changes not shown]
Kd (Human CD3 (recombinant) [7]): 26 nM | Kd (Human PD-L1 [8]): 75 nM | Kd (Mouse PD-L1 [9]): 19 nM | Kd (Cynomolgus monkey PD-L1 [10]): 23 nM | Kd (Human PD-L1 [11]): 85 nM

Read-outs that look alike come from different tables or passages of the source.
